The values below come from the supplement of paper PMC10126150.

Sequences with one replicate were seen in a single cluster, so their values are uncertain.

The test system of this data set is ATP. The experiment in a line: switch fluorescence ratio, 500 uM ATP over buffer (Cy3 cluster intensity, sum of 5 cycles each) (fold (ratio)); higher = stronger signal-on switching upon ATP binding; sequences stand for … in TCGTCGGCAGCGTCAGATGTGTATAAGAGACAGTTTTTTTTTTTTTTTTTTTTTTTTT…TC. To be noted: aptamer strand: ATP DNA aptamer (quencher-CACCTGGGGGAGTATTGCGGAGGAAGG + anchor), 100 nM annealed; ATP concentration: 500 uM; one replicate. The gist of the method:
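For every switch-domain sequence, the fluorescence ratio is the mean of per-cluster values, each being summed target-cycle Cy3 intensity over summed buffer-cycle Cy3 intensity. Clusters outside 100-1000 RFU were excluded. On a modified Illumina MiSeq flow-cell, the Cy3-labelled switching-strand clusters were annealed to 100 nM quencher-labelled ATP aptamer, imaged in selection buffer and then after 15 min with 500 uM ATP at 22 °C. Five such cycles were run, with NaOH stripping and re-annealing between them.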
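Note: ATP exposure 15 min at 22 °C before imaging.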

As for CACTTAAAA, the switch fluorescence ratio came to 1.03.
As for AACTCCAGGC, the switch fluorescence ratio turned out to be 1.15.
Take TACAAAGGGC: the switch fluorescence ratio was 1.03.
For CTCTAGCGCG the value was 0.949.
For the sequence GAGGAGTTGG, the switch fluorescence ratio was 0.942.
The value for CCAATTGTAA was 1; that for CAGAGCCACA was 1.04; that for GAGGCTGCTG was 1.11.
Regarding GATTTAAACC, the switch fluorescence ratio was 1.04.
Consider CGGTGTCCGC, for which the switch fluorescence ratio was determined as 0.932.
For TGCGGCGGCG the value was 0.999; for TGCTGTTGCG, 0.966.
As to CCGTGCAGGG, the switch fluorescence ratio is 1.09.
The value for GTGAATGACT was 0.973; that for ATAATCTACT was 1.07.
The value for GGAGACATTT was 1.02; that for AGAGGACAGC was 1.02.
The value for AGGGTGACGT was 1.01; that for TGGAACCGAC was 2.3.
With TTTAGTGAAA, the switch fluorescence ratio is 1.04.
The value for CGGTTGGCAG was 1.02; that for GAAAACTTGC was 1.14; that for TCCATGAGGA was 0.946.
The value for AGTGGCGCGG was 1.02; that for GGCACGTCAG was 1.01.
For TGCAAGGATG the value was 0.962; for CTATTAAGGA, 0.95; for CCACCCAGCT, 1.05.
Turning to TGGTCTGAGG, the switch fluorescence ratio was found to be 1.02.
As to GGAACATATT, the switch fluorescence ratio turned out to be 0.993.
The value for AAAAGCAATG was 1.13; that for CCGGCATGTG was 1.1; that for GCCGGAAGG was 1.04.
The value for TACACTTGCT was 1.
The value for CAGAGCATTC was 2.59; that for GGGAGAACTA was 0.996; that for GCATTCGGGG was 1.05.
In the case of TATGAGTAGA, the switch fluorescence ratio was found to be 1.02.
The value for ATATGGGATA was 1.01; that for ATGAAGAG was 1.01.
The value for TTCTTTGAAG was 1.
For CCAGAAACTC the value was 1.03; for CGTTCTGCTG, 0.999.
Consider CTCGCGTCGT, for which the switch fluorescence ratio was found to be 0.987.
The value for TAATGGGAAT was 0.997.
For CAGAATGGGC the value was 0.985; for TGATAACGCT, 1.08; for CGGGGATATA, 0.943.
GCTAGACGCC: the switch fluorescence ratio was found to be 1.1.
The value for GCGGGCCTAT was 1.02; that for GAGCCGACCA was 1.02; that for CACAAGGGTT was 1.17.
For GGCATCGCTT the value was 1.06.
The value for ACAATCGGGC was 1.01.
As for CGAAGATCCG, the switch fluorescence ratio came out at 1.
The value for ATAGCTATCA was 0.966.
For TCAATAGTTG, the switch fluorescence ratio stood at 0.978.
For GTTAGGATAT, the switch fluorescence ratio stood at 1.
On to AACAATAACA, for which the switch fluorescence ratio worked out at 1.05.
The value for TATTCTTGGC was 1.03.
The value for GGCCCTTAGA was 0.987; that for TTGGCGGGT was 0.971.
For CTGATGCTCG the value was 1.02; for AAAATCTCGA, 0.96; for GGATTAAAGA, 1.02.
For TAACAGCCGA, the switch fluorescence ratio amounted to 1.
The value for GCATGGAATC was 1.05.
For TGACCATTAG the value was 1.01; for CACATTCAAG, 1.06; for GATCGCGATT, 1.03.
The value for CCAAGCCGGT was 1.05; that for CCAATTGTTT was 1.02; that for TATTACGGG was 1.01.
On to GCTTGGTTCT, for which the switch fluorescence ratio turned out to be 1.01.
The value for ATCCACGCGA was 1.31.
As for GAACACCGAT, the switch fluorescence ratio worked out at 1.08.
CGTTACGGAA: the switch fluorescence ratio was 1.05.
For TTGAAATTGA the value was 0.943; for TTCTCATTGC, 1.96.
The value for TGCAGGATTA was 1.03; that for GTATATTTGC was 0.984; that for AGTGTTATCT was 0.998.
On to CGATGGAGT, for which the switch fluorescence ratio came out at 1.01.
The value for CGGGGGTAAA was 0.989.
For GCGGTCTGGC the value was 0.93; for AGTATCACAT, 0.995.
The value for GAGTGTGAG was 0.937; that for TCATACCTG was 1.03.
CGAGTAGAAC: the switch fluorescence ratio was found to be 0.97.
For CAGTGGGCGC the value was 0.904; for GCCAACGTCA, 1.04.
The value for TTTGAAAGAT was 1.03; that for TGGTGTAACG was 1.03; that for ATCGATGCTA was 1.03.
For CATGGGCGAG the value was 1.16; for TAACCGTTCA, 0.992; for ATCGGTTAAT, 0.998.
As to TCAGGTCTGG, the switch fluorescence ratio turned out to be 1.02.
Turning to ACTGAATTTC, the switch fluorescence ratio is 0.984.
ATTTAGAACA: the switch fluorescence ratio came to 0.98.
For ACCACACT the value was 1.32.
For GAGAGGGTCG the value was 0.94; for TTCCTCGTGG, 1; for TAGGAAAGAC, 1.04.
For TCAATGGACG the value was 1.03; for CGCCCGGGC, 1.04.
For GCAGCGGTCG, the switch fluorescence ratio turned out to be 1.08.
For GTATTTCGG the value was 1.02.
With TGGCGAGTTG, the switch fluorescence ratio is 0.98.
For TTTGGATACT the value was 1.04; for ATTACGCGGG, 1.03.
With ATTTAATATT, the switch fluorescence ratio worked out at 0.998.
The value for TACGTGGGG was 0.989.
For GTTAGATGAG the value was 1.02.
The value for TTTTAATATG was 0.986; that for AGAATTAGAC was 0.99; that for TTCACATTTG was 1.01.
For the sequence AGCTCAGCAT, the switch fluorescence ratio amounted to 1.26.
The value for AAGCAAATGT was 1.01.
Turning to TCTCGTTACA, the switch fluorescence ratio was 1.
